In PubChem BioAssay AID624418 (National Center for Advancing Translational Sciences (NCATS), 2012):
The whole screen tested about 410,000 compounds, of which about 530 (0.13%) were called active. Inconclusive means that the source gave no clear call. Such entries were picked first, then a sample of the others. The call rests on the fitted dose curve; in most records, active means well fitted inhibition curve with a large enough effect; inconclusive means small, poorly fitted or top-dose-only effect, or another doubt; inactive means no such curve, though single readings can be large or run the other way. Potencies beside an inconclusive call are fits to weak or partial responses and may not hold up.
On the % scale 0 is the no-effect control and ±100 the full control effect; potency means the concentration at half of the fitted maximal effect.

Assay: qHTS of GLP-1 Receptor Inverse Agonists: Cytotox Screen
Conditions: HEK293 cAMP-luciferase reporter cells, luminescence, 24 h; activity change, negative = inhibition: at 38.3 µM (top of the series) unless noted
Method in brief: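 Here, cytotoxicity is scored as loss of luminescence. The MLSMR collection was tested on cells seeded in medium containing 10% Nu serum, with a 24 hr compound exposure preceded by 12 hours of culture.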
For `O=c1[nH][nH]c(=O)c2c(NS(=O)(=O)c3ccccc3)cccc12`, the activity change, negative = inhibition was inactive: -0.609% [at 7.66 µM]. For `CCOC(=O)c1ccc(NC(=S)N(CCCN2CCN(CC)CC2)Cc2cccs2)cc1`, the Potency was inconclusive: 15.8 µM [inhibitor, partial curve, poor fit]. With `CSc1ccccc1NC(=O)CN(C)CC(=O)Nc1c(F)cccc1F` the Potency was “inactive”. In the case of `O=C(Nc1ccc(Cl)cc1)Nc1nc(-c2sccc2Br)cs1`, the Potency was inconclusive: 25.1 µM [inhibitor, single point]. For `COc1ccc(NC(=S)NNc2ccc([N+](=O)[O-])cc2S(=O)(=O)Nc2ccc(C)cc2C)cc1`, the Potency was inconclusive: 12.6 µM [inhibitor, single point]. With `O=C(Nc1ccc([N+](=O)[O-])cc1)c1ccccc1F` the Potency was “inactive”. In the case of `Cc1ccc(S(=O)(=O)N2CCN(C(=O)c3ccccc3OCc3c(C)noc3C)CC2)cc1C`, the Potency was inconclusive: 12.6 µM [inhibitor, partial curve, poor fit]. With `COc1ccc(CCNC(=O)CCc2c(C)nc3c4cccnc4nn3c2C)cc1OC` the Potency was “inactive”. For `CC1CCC2(CC1)NC(=O)N(Cc1cccc(C(F)(F)F)c1)C2=O` (stereo not given), the Potency was “inactive”. In the case of `OC(CNCCc1ccc(C(F)(F)F)cc1)COc1cccc2ccccc12` (stereo not given), the Potency was inconclusive: 28.2 µM [inhibitor, single point]. For `C/C(=N\NC(=S)NCc1ccccc1)c1cccs1`, the Potency was active: 3.55 µM. With `O=S(=O)(NC1c2cccc3cccc(c23)C1N1CCNCC1)c1ccc(Cl)cc1` (stereo not given) the Potency was inconclusive: 11.2 µM [inhibitor, partial curve]. In the case of `Cc1cccc(C(=O)NC2CC3CCCC(C2)N3S(=O)(=O)c2ccccc2)c1` (stereo not given), the Potency was inconclusive: 12.6 µM [inhibitor, single point]. In the case of `CCOC(=O)c1cc2occc2n1CC(=O)NC1CCCCC1C` (stereo not given), the Potency was “inactive”. In the case of `Cc1[nH]n(-c2cccc3ccccc23)c(=O)c1/C=N/NC(=O)c1cccc([N+](=O)[O-])c1`, the Potency was inconclusive: 3.98 µM [inhibitor, full curve, poor fit]. In the case of `CCOC(=O)CSc1nc2ccc(NC(=O)COc3ccc(F)cc3)cc2s1`, the Potency was “inactive”. With `CCOC(=O)c1ccc(NC(=S)NCCc2ccccc2F)cc1` the Potency was inconclusive: 17.8 µM [inhibitor, partial curve, poor fit]. In the case of `CCN(CC)CCCNC(=O)c1cc(-c2ccc(Cl)c(Cl)c2)on1`, the Potency was inconclusive: 28.2 µM [inhibitor, single point]. With `N=c1c2c(-c3ccccc3)c(-c3ccccc3)n(Cc3ccco3)c2ncn1CCN1CCOCC1` the Potency was inconclusive: 12.6 µM [inhibitor, partial curve, poor fit]. With `COc1ccccc1N(C(=O)CCl)c1cn(C(C)=O)c2ccccc12` the Potency was inconclusive: 10 µM [inhibitor, partial curve, poor fit]. With `O=C1Nc2ccccc2/C1=C/c1ccccc1Cl` the Potency was inconclusive: 25.1 µM [inhibitor, single point]. In the case of `Cc1cc2c(ncn2C(C)C)c(N)c1C`, the Potency was inconclusive: 0.501 µM [inhibitor, full curve, poor fit]. With `COc1cc(NC(=O)c2cnc(NCc3ccccc3)nc2C)cc(OC)c1OC` the Potency was “inactive”. For `NNC(=S)NCc1ccc2c(c1)OCO2`, the Potency was inconclusive: 10 µM [inhibitor, single point]. With `COc1ccc(C=C2SC(=S)NC2=O)cc1` the Potency was inconclusive: 14.1 µM [inhibitor, single point]. With `CN(C)Cc1c(C(=O)N/N=C/C=C/c2ccccc2)nnn1-c1nonc1N` the Potency was “inactive”. With `OCCN1CCN(CC/C=C2/c3ccccc3CSc3ccccc32)CC1` the Potency was inconclusive: 10 µM [inhibitor, single point]. For `CN(C)S(=O)(=O)c1cccc(NC(=O)COC(=O)c2cc(-c3cccc(Br)c3)nc3ccccc23)c1`, the Potency was “inactive”. In the case of `CCOc1ncccc1C(=O)N1CCN(c2cccc(C)c2C)CC1`, the Potency was inconclusive: 1.12 µM [inhibitor, full curve, poor fit]. With `C/C(=N\NC(=S)NCc1ccccc1)c1cccc(Br)c1` the Potency was inconclusive: 4.47 µM [inhibitor, full curve]. In the case of `COc1cc(C)nc(-c2csc(C)n2)n1`, the Potency was inconclusive: 28.2 µM [inhibitor, single point]. For `O=C(Nc1ccc(-c2cnco2)cc1)c1ccc(F)cc1F`, the Potency was “inactive”. For `Cc1c2cc(O)c(=O)cc-2oc2cc(O)c(O)cc12`, the Potency was inconclusive: 10 µM [inhibitor, single point]. With `Cn1c(=S)c2[nH]c(SCC3CCCO3)nc2n(C)c1=O` (stereo not given) the Potency was inconclusive: 2 µM [inhibitor, full curve]. For `O=C(Nc1ccc(F)cc1F)c1cc(S(=O)(=O)N2CCCCC2)c[nH]1`, the Potency was inconclusive: 12.6 µM [inhibitor, single point]. With `O=C(Nc1nccs1)c1sc2cc(Cl)ccc2c1Cl` the Potency was inconclusive: 10 µM [inhibitor, partial curve, poor fit]. For `CCn1c(=O)n(CC)c2cc(N3CCCC3)c(NC(=O)c3ccccc3)cc21`, the Potency was “inactive”. With `Cc1ccc2nc(N(CCCN(C)C)C(=O)c3ccc4ncsc4c3)sc2c1` the Potency was inconclusive: 12.6 µM [inhibitor, partial curve, poor fit]. In the case of `CCn1c(CSc2nc3ccccc3s2)nc2ccccc21`, the Potency was inconclusive: 28.2 µM [inhibitor, single point]. In the case of `O=C(Cc1ccccc1)Nc1ccccc1Sc1ccccc1`, the Potency was “inactive”. With `Cc1ccc(NC(=O)C2CCN(c3ncnc4c3nc3n4CCCCC3)CC2)cc1Cl` the Potency was inconclusive: 20 µM [inhibitor, single point]. In the case of `Cc1ccc(CCNC(=O)CN2C(=O)COc3ccc(S(=O)(=O)N4CCCCCC4)cc32)cc1`, the Potency was “inactive”. For `O=C(Nc1ccc(Cl)cc1)NC1CCCCC1Cc1ccco1` (stereo not given), the Potency was “inactive”. With `O=S(=O)(Cc1ccccc1Cl)N1CCCC1` the Potency was inconclusive: 2.51 µM [inhibitor, partial curve, poor fit]. With `Fc1cccc(/C=N/Nc2nc3ccccc3[nH]2)c1` the Potency was inconclusive: 10 µM [inhibitor, single point].
